Test results: the RNAGym collection of RNA variant scans (doi:10.7554/elife.90254)
The source gives no read counts; variants with many changes may rest on few reads.

B1: LINE1-full (parent)
chain: UACGUAGGUGGUUUUCCCCUGAUAGUGCUAAGGGGGCCUGGAAGUUUGGACUGGGCAGAGCUCAACACAGCGUGGCAAAGUGGCUGUGGCUAGACUGCCUCUCUGGAUUCCUCGUCACUCAGCAGGGCAUCUCUGAGAGAAAUGCC

Variants of: B1
Test: self-cleavage, relative activity (ratio to wild type); higher = more cleavage; in vitro, sequencing; the parent is a self-cleaving ribozyme

| Variant | self-cleavage |
| --- | --- |
| G60A A79U U109C U112C U143C | 0.01 |
| A57G A69U A107U | 0.03 |
| A24U A43G U62C | 0.23 |
| U14C A57G U96C | 1.53 |
| C3U U12C U73A | 2.25 |
| U14C A77G A117G G125A A142G | 2.19 |
| U20A G88A A140G | 0.03 |
| C17U U26A A57G | 0.53 |
| U13G U26G A138U | 0.26 |
| U14C U26C U87A | 0.16 |
| U1C C61A U143C | 0.05 |
| A57U U62C A64G G72A A79C A121U | 0.02 |
| A2G A42U A107G | 0.51 |
| A43G U96A A138G A142G | 0 |
| A2U U14C C37U A50G | 0.12 |
| U1C C56U U108C | 0.15 |
| U9A U13C A129U | 0.61 |
| U13C U14C A42G U62C U104A | 0.15 |
| G7U U13A U46A A69G | 0.62 |
| A69G U73A A136G | 0.32 |
| U46C U104G A142G | 0.25 |

| Variant | self-cleavage |
| --- | --- |
| U9G U62C C99U | 0.1 |
| A30G C98G U108C | 0.77 |
| U13C U45C A129G | 1.1 |
| U47A U73C A107G | 2.36 |
| C17A A79G U81A | 1.24 |
| G54A U102C U109C A136U | 0.21 |
| U20C A142G U143A | 1.5 |
| U47C A64G A77G A94U | 0 |
| A6G U13C A67G U119C G125U | 0.28 |
| U26C U62C A79U | 0 |
| U12C G127A G135A | 1.72 |
| A31G C68A A142G | 0.02 |
| U14C U26C U52C G55A U104A | 0.16 |
| U14C U26C A65U U91C U100C G127A | 0.69 |
| A22U A67U U119C | 0.24 |
| U47A C113U U115C | 1.04 |
| U26C G48A A121G G122A | 1.45 |
| U29C A64U A121G | 1.04 |
| G21A U87C U112C | 0.1 |
| A43G G122U U130C | 1.25 |
| A50U U62C U73C U91A | 0.12 |

| Variant | self-cleavage |
| --- | --- |
| U9C G25U U115A | 1.33 |
| A64G G86A C99G U109A | 0.02 |
| A30G C38U A57G U109C | 0.89 |
| A2G A50U A77U C113A U130C | 1.05 |
| U12G U20C U26C | 1.62 |
| U62A A129G U130C | 0 |
| U14G A79G U102C A117U | 1.72 |
| A65G A77G U112C | 0.06 |
| U14C A42G G54A A94U A141G | 0 |
| U15C A78U A121G | 2.42 |
| U13C A24G U104C | 0 |
| G49A A69U U119C | 0.06 |
| U9A A42G A57C | 0 |
| A78G A124U A140G | 1.32 |
| U5G C38U A43G U91A U96C U132C | 0 |
| U12C A22G A78G U100G | 0 |
| A59U U62C A69G A78G | 0.26 |
| A2G U12C U15C U62A | 0.17 |
| U12G U14C A69G G70A U73C A124G | 0 |
| A42U A43G C99A | 0.87 |
| U26C G35U U47A A57G U115A | 1.21 |

| Variant | self-cleavage |
| --- | --- |
| G88A U115G A117U | 0.04 |
| U12G U15C C19U G34U | 1.1 |
| C16A U26C A107U | 1.55 |
| G7U G60A U91C A136G | 0 |
| U9C U91C A117G | 1.53 |
| U62G G72A A141G | 0.05 |
| A31U U73G A117U U119C A140G | 1.7 |
| A42G U46G A121U A141U | 0 |
| U62C C63A U73C C145G | 0.07 |
| U26C C38U U45C U52C A57G | 0.92 |
| A22C U102C U130C | 1.28 |
| U9A U45C A69U U102C | 0.33 |
| U9C U134G A141G | 1.95 |
| A2G A43G C56U | 0.22 |
| U52A A77G C146U | 2.42 |
| U9A A67G A142U | 1.06 |
| G25A A69G C99U | 0.16 |
| U12G G40U U46A A94G U115A A129G | 0.12 |
| U23A C128G A129C | 0.91 |
| G34A A42U A64G A94G | 0 |
| A78G U87A U112C U130C A140G | 0 |
